These results are taken from ChEMBL document CHEMBL4888484, “Replenishing the malaria drug discovery pipeline: Screening and hit evaluation of the MMV Hit Generation Library 1 (HGL1) against asexual blood stage Plasmodium falciparum ,using a nano luciferase reporter read-out” (2022).

Structures are written as SMILES. About 540 (0.36%) of roughly 150,000 compounds showed an effect of 50% or more. Some of the results follow.

The subject of this test is Plasmodium falciparum. The test is described as follows: Primary screen in NF54 nanoGlo assay, in single point, at 2uM, 72h; a lower Z score goes with more inhibition. The test is classed as functional, Erythrocyte. To be noted: timepoint 72 hour.
In general, % Inhibition refers to the relative decrease from the control value, in per cent. For the compound `COCc1ccc(COC(=O)C[C@@H](CN)CC(C)C)cc1`, the “% Inhibition” value is reported as 1% and the Z score is recorded as -0.13.

`O=C1O[C@]2(CCCN(S(=O)(=O)c3ccccc3)C2)c2ccccc21`: the “% Inhibition” value is -14% and the Z score is recorded as 2.75.

Consider `CCC[C@H]1CN(C(=O)Cn2cc(C)cn2)C[C@@H]1N`, for which the “% Inhibition” value is given as -1% and the Z score turned out to be 0.18.

As for `CC(C)(C)Oc1cc(C(=O)NCc2ccco2)ccn1`, the “% Inhibition” value was -4% and the Z score is 0.68.

As to `O=C(Nc1ccnc2ccnn12)[C@H]1CC(=O)N(C2CCCCCC2)C1`, the “% Inhibition” value is recorded as -11% and the Z score came to 1.08.

Turning to `CN(Cc1cnn2cccnc12)CC1(N2CCOCC2)CCCCC1`, the “% Inhibition” value is -7% and the Z score came out at 1.3.

In the case of `Cc1nn(CCCNC(=O)[C@H](O)c2cccc(Cl)c2)c(C)c1C`, the “% Inhibition” value is listed as -13% and the Z score was 1.25.

Consider `COCCC1(NS(=O)(=O)c2ccccc2)CCN(CC2CC2)CC1`, for which the “% Inhibition” value is listed as 5% and the Z score is on record as -0.68.

As to `C=C(C)CC(C)C(=O)NCC1CCc2cccnc21` (stereo unspecified), the “% Inhibition” value is reported as -4% and the Z score amounted to 0.51.

In the case of `Cc1nccc(C(=O)Nc2ccc(-n3cncn3)cn2)n1`, the “% Inhibition” value is on record as 0% and the Z score is -0.04.

Take `CCC(C)NC(=O)c1coc(CN(Cc2ccc(C)cc2C)C(C)C(C)C)n1` (stereo unspecified): the “% Inhibition” value was -12% and the Z score was 1.36.

Consider `COc1ccc(CN2CCC(N3CCOCC3)CC2)cn1`, for which the “% Inhibition” value was -17% and the Z score worked out at 1.72.

For the compound `Cc1nc(C)c(S(=O)(=O)NC2CC(C)N(c3ccccc3)C2=O)s1` (stereo unspecified), the “% Inhibition” value is recorded as -8% and the Z score is on record as 1.63.

`Cc1c(N[C@@H](C)c2cc(Cl)ccc2O)c(=O)n(-c2ccccc2)n1C`: the “% Inhibition” value is 9% and the Z score is -1.13.

As for `CCCc1nnc2c(=O)n(CC(=O)Nc3ccc(C)c(C)c3)c3ccccc3n12`, the “% Inhibition” value is recorded as -13% and the Z score turned out to be 1.46.

As to `COc1cccc2cc(-c3ccnc(N)n3)oc12`, the “% Inhibition” value is -1% and the Z score stood at 0.07.

As to `C[C@H]1COc2ccccc2N1CCn1cncn1`, the “% Inhibition” value is -7% and the Z score is given as 1.02.

For `O=C(c1ccc(C(=O)N2CCN(c3ccccc3F)CC2)nc1)N1CCN(c2ccccc2F)CC1`, the “% Inhibition” value is on record as -3% and the Z score is reported as 0.41.

As for `O=C(COc1ccccc1)N1CC[C@H](c2nc(C3CCOCC3)no2)C1`, the “% Inhibition” value came to 33% and the Z score is listed as -0.96.

With `Cc1ccc(C(=O)NCc2ccccn2)cc1S(=O)(=O)N1CCN(C)CC1`, the “% Inhibition” value was 14% and the Z score is -1.99.

`CCO[C@H]1COCC[C@@H]1NC(=O)c1cccc(-n2cnnc2)n1`: the “% Inhibition” value is -13% and the Z score was 1.64.

Regarding `N#Cc1ccc(OCc2noc(-c3cccs3)n2)cc1`, the “% Inhibition” value was found to be 9% and the Z score was -1.07.

For `COc1cccc2c1O[C@@H](C)C(=O)N(C1CC1)C2`, the “% Inhibition” value is listed as -11% and the Z score is 1.24.

For the compound `COc1ccsc1S(=O)(=O)N1CCN(c2ncns2)CC1`, the “% Inhibition” value is listed as -5% and the Z score was 0.57.

Consider `O=c1cc(-c2ccccc2)n2c(nc3ccccc32)[nH]1`, for which the “% Inhibition” value is reported as 22% and the Z score was -2.5.

Take `CCOC(=O)c1cccc(N2C(=O)Cn3cccc3C2C(=O)NC2CCCCC2C)c1` (stereo unspecified): the “% Inhibition” value was -16% and the Z score is on record as 2.06.

Take `COc1ccc2c(c1)N(C(=O)c1cccnc1)CCCC2`: the “% Inhibition” value is -7% and the Z score came out at 1.3.

As to `CC1CN(C(=O)c2ccc3c(c2)OCO3)OC(c2cccnc2)O1` (stereo unspecified), the “% Inhibition” value is given as 4% and the Z score is -0.47.

In the case of `CS(=O)(=O)N1CC[C@@]2(CCCN(CCc3ccccc3)C2)C1`, the “% Inhibition” value is listed as -1% and the Z score is given as 0.09.

Take `Cn1c(CN2CCCC2)nnc1C1CCN(S(=O)(=O)C2CC2)CC1`: the “% Inhibition” value amounted to 4% and the Z score is given as -0.58.

Turning to `CS(=O)(=O)c1ccc(CN2C[C@@H]3C[C@H]2C(=O)NC[C@H]2O[C@H](CCOc4cc(-c5ccccc5)ccc4C(=O)N3)CC[C@@H]2O)cc1`, the “% Inhibition” value was -2% and the Z score is given as 0.26.

On to `C[C@@H](CCNC(=O)N1CCN(c2ccc3nccn3n2)CC1)n1ccnc1`, for which the “% Inhibition” value is -9% and the Z score was determined as 1.01.

Take `CC1CN(c2nc3ccccc3nc2C(C#N)S(=O)(=O)c2cccc(Cl)c2)CC(C)O1` (stereo unspecified): the “% Inhibition” value is given as 31% and the Z score is on record as -3.53.

Turning to `CCn1ccnc1-c1nccn1-c1ccc(NS(C)(=O)=O)c(OC)c1`, the “% Inhibition” value is given as -11% and the Z score came to 1.67.

Turning to `Cn1ccnc1CN(Cc1cc(=O)n2c3c(cccc13)CCC2)C1CC1`, the “% Inhibition” value stood at 6% and the Z score is -1.15.

Take `O=C(N[C@H]1CCO[C@@H]1c1cncc(Br)c1)C1CC1C1CC1` (stereo partly specified): the “% Inhibition” value is on record as -8% and the Z score was found to be 1.22.

As for `COC[C@H]1CCCCN1Cc1cn(-c2ccccc2)nc1-c1ccc2c(c1)OCO2`, the “% Inhibition” value is recorded as -1% and the Z score was determined as 0.15.

As to `Cn1cc(S(=O)(=O)NCc2nnc3n2CCCCC3)cn1`, the “% Inhibition” value is listed as -1% and the Z score turned out to be 0.06.

With `Cc1ncnc(N2CCN(C(=O)C[C@H](C)n3ccnc3C)CC2)c1C`, the “% Inhibition” value is reported as -1% and the Z score is recorded as 0.11.

Consider `CC1CC(C)CN(C(=O)CN(CCO)Cc2ccsc2)C1` (stereo unspecified), for which the “% Inhibition” value is -7% and the Z score turned out to be 1.07.

In the case of `Cc1cc(C)cc(CN(Cc2ccccc2)[C@@]2(CO)CCOC2)c1`, the “% Inhibition” value is listed as 9% and the Z score is on record as -1.57.

Consider `COc1cc(CN(C)Cc2c(C)noc2C)ccc1OC[C@@H](O)CN1CCCC1`, for which the “% Inhibition” value was 4% and the Z score was -0.58.

In the case of `Cc1ccc(-n2ccnc2)c(C(=O)N2CCS(=O)(=O)C(C)C2C)c1` (stereo unspecified), the “% Inhibition” value is -18% and the Z score is given as 1.5.
